# Results taken from the supplement of paper PMC3334620.
# In all, about 33,000 sequences were measured (“E-score (-0.5 to 0.5)”: median about -0.036, highest 2% from about 0.37 on). The list shows a part of the results.
# Molecular target: T1, Yer064c (UniProt P40041)
# T1 sequence: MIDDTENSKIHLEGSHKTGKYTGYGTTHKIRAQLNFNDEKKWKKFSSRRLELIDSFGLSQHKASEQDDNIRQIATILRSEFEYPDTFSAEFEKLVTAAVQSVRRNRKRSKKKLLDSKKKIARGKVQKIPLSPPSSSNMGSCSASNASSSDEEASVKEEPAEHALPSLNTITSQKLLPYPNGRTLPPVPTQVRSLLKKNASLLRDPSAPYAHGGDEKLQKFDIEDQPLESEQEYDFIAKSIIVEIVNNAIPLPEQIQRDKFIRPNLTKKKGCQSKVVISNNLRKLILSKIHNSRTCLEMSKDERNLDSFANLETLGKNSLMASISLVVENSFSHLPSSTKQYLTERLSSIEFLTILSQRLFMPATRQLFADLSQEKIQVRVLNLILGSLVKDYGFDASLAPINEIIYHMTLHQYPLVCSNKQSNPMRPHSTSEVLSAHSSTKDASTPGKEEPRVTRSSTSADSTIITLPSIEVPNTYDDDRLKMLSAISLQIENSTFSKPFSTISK
# Assay: PBM E-score (8-mer binding enrichment) (E-score (-0.5 to 0.5)); higher = stronger / more preferred TF binding; most listed sequences are background and not binding sites
# Conditions: protein concentration: 200 nM; construct: GST-full length
# Procedure, shortened: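 The E-score, a modified Wilcoxon-Mann-Whitney statistic, was computed by the Universal PBM Analysis Suite for every ungapped eight-base word pooled with its reverse complement. Scans behind it were normalised with masliner after bound GST-tagged yeast transcription factors were detected with fluorescent anti-GST. The proteins, at about 100-200 nM, had been applied to universal all-10-mer Agilent arrays made double-stranded by primer extension.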
row,Sequence,PBM E-score
1,CGATAGAG,-0.0375
2,ACTTCTAG,-0.0679
3,AAACATAG,0.00384
4,AAGTGCGG,-0.109
5,CCATTGTC,-0.129
6,ACATGTTC,-0.16
7,GCCAGTAA,-0.0791
8,ACAATAGA,0.0208
9,AGCCGTAG,0.0413
10,ATTGGGGG,-0.275
11,CAGATCCG,-0.0473
12,AAATAGCC,-0.0276
13,CACAACTG,-0.113
14,CTTGGAAC,0.00351
15,GGCAGCAC,-0.22
16,GGTCCGGA,-0.148
17,CGATGTTC,-0.274
18,GCGGCGCA,-0.231
19,ATTGGTGC,-0.162
20,GAACAAGA,0.0948
21,TAATAATA,0.106
22,CTATACAA,0.0789

row,Sequence,PBM E-score
1,CGGAGCGC,-0.163
2,GTTCTGAA,0.0639
3,TAGGCTCA,-0.0588
4,CAGCACCA,-0.141
5,TCTTGACA,0.113
6,ACTAAGTG,0.289
7,CGGGCGTA,-0.211
8,CGGTCTAA,0.0445
9,GAGGAGCA,-0.169
10,ATCGTTTC,0.0724
11,CCAGAACA,-0.121
12,GCAAAGCC,-0.263
13,AAAACTAG,-0.0645
14,CACGGTAC,0.193
15,CATTATCC,-0.136
16,AAAGATGG,-0.153
17,GCGTTCTA,-0.149
18,GAGCATGA,0.141
19,GAAGTATA,-0.0537
20,CCTGCACC,-0.265
21,CAATCTGA,0.161
22,CAGCTCAC,0.123

row,Sequence,PBM E-score
1,CTTTGTCC,-0.195
2,ACCCCGCC,-0.11
3,ACCAACAG,-0.155
4,CCCGCCCA,-0.0709
5,AACCTGGT,0.0722
6,ACTAGCCT,0.145
7,ACACCCCT,0
8,ACCAGGAA,-0.0771
9,GCGTACCA,-0.257
10,AGTGGCGC,-0.289
11,GGCAGACC,-0.194
12,AGGGTGTG,-0.00223
13,GAGTCGGC,0.412
14,ACCTTCGT,-0.095
15,CGTCAGAA,-0.00133
16,CTCTTTCA,0.146
17,CTCCATGC,0.0157
18,CCGATCGG,-0.303
19,AATCCGCC,-0.0644
20,AAATGCTT,-0.157
21,ATCCAGAT,-0.0843
22,TCAGCACA,0.0939

row,Sequence,PBM E-score
1,ACGGATGA,0.248
2,CCCCTTCA,-0.223
3,ACGTTAGT,0.304
4,GTTCGGAA,-0.0148
5,GGCTAGGA,-0.0539
6,GATCCATA,0.108
7,ACTGACTC,0.461
8,GAACGCCA,-0.19
9,TGCTTGAA,0.159
10,ACCCGGTA,0.00231
11,CTGGGTTA,0.187
12,CTGAGGTC,0.00815
13,CAAGTGAC,0.191
14,CCTCTTGC,-0.247
15,GAGGTTCC,-0.0606
16,AAAGCTAT,-0.0843
17,CTGGAAGC,-0.23
18,CATAGAGC,-0.112
19,AATGCACC,-0.162
20,AATTAACC,0.0197
